Test results: ChEMBL document CHEMBL1201862, “PubChem BioAssay data set” (2004)
Where a name gives a salt, the structure may show the parent alone.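 Step 1: Grow cells in 96-well plates. Step 2: Expose to compound for 48 hours at 5 concentrations. Step 3: Interpolate endpoints linearly; if unreached, use highest concentration. At the GI50, growth is halved.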 Calls of active or inactive are those of the source. Cut-off read from the data, not from the text of the source: active = GI50 up to about 1.1 µM and inactive = higher.

system: NCI-H322M; assay: NCI-60 cell line screen, 48 h

| SMILES | GI50 |
| --- | --- |
| COc1cc2c(/C=C3/C(=O)N(c4ccccc4)c4ccccc43)c(Cl)[nH]c2cc1C | inactive: 3.33 µM |
| C/C1=C\CC[C@@]2(C)O[C@@H]2C[C@@H]2[C@H](C/C(C)=C/CC1)OC(=O)[C@]21CO1 | inactive: > 100 µM |
| COC(=O)c1onc(-c2c(OC)cc(OC)cc2OC)c1C(=O)OC | inactive: > 100 µM |
| CC(C)(c1cn(Cc2ccccc2)c2ccccc12)c1cn(Cc2ccccc2)c2ccccc12 | inactive: > 100 µM |
| c1ccc(-c2[nH]c(-c3ccccc3)c(-c3cnccn3)c2-c2cnccn2)cc1 | inactive: > 100 µM |
| Cc1c2ccnc(C(=O)NCCN(C)C)c2cc2c3cc(O)ccc3n(C)c12 | active: 0.213 µM |
| COc1ccc2c(c1OC)C(=O)N/C2=C\c1c(CCN(C)C)cc2c(c1OC)OCO2 | inactive: > 100 µM |
| O=C(CC1(O)C(=O)Nc2c(Cl)cc(Cl)cc21)c1ccco1 (centres undefined) | inactive: 69.7 µM |
| O=C(c1ccco1)C1CC(c2ccc3ccccc3c2O)=NN1 (centres undefined) | inactive: > 100 µM |
| COC(=O)C(CBr)CBr | inactive: 16.3 µM |
| O=C(Nc1cccc([N+](=O)[O-])c1)C(=O)C(C(=O)c1ccccc1F)C1OC(=O)C2C=CC=CC21 (centres undefined) | inactive: 29.3 µM |
| O=[N+]([O-])c1cccc2c(/N=N/c3ccc4ccccc4c3O)c(O)cc(S(=O)(=O)O)c12 | inactive: 30.6 µM |
| Clc1ccc(C2=C(c3ccccc3)C(c3ccc(Cl)cc3)N3C(=N[C@H]4CCCC[C@@H]43)N2)cc1 (some centres undefined) | inactive: 11.8 µM |
| NCC(=O)NC(CCCC(NC(=O)CN)P(=O)(O)O)P(=O)(O)O (centres undefined) | inactive: > 100 µM |
| CN(CC(=O)O)S(=O)(=O)c1ccc(F)cc1 | inactive: > 100 µM |
| CN(C)c1ccc(C(c2ccc(N(C)C)cc2)c2ccc([N+](=O)[O-])cc2)cc1 | inactive: > 100 µM |
| COc1ccc(/C(Cl)=C(\C#N)c2ccc(OC)c(OC)c2)cc1OC | inactive: > 100 µM |
| COc1ccccc1/C=C1\CCC(CCN2CCOCC2)C1=O (centres undefined) | inactive: > 100 µM |
| O=C(Nc1ccc(Cl)cc1C(=O)O)c1ccc([N+](=O)[O-])cc1 | inactive: 19.9 µM |
| C/C1=C\[C@H](C)C[C@H](C)OC(=O)C[C@H](c2ccc(O)cc2)NC(=O)[C@H](Cc2ccc(O)c(Br)c2)N(C)C(=O)[C@H](C)NC(=O)[C@@H](C)C1 | inactive: > 25 µM |
| COC(=O)c1cc2ccc(N)nc2[nH]c1=O | inactive: > 100 µM |
| CC1(C)C2CC3C4CC5(Nc6ccccc6C5N41)[C@]3(C)CC2=O (some centres undefined) | inactive: > 50 µM |
| CSc1ccc(/C=C2\CN(C)C/C(=C\c3ccc(SC)cc3)C2=O)cc1 | inactive: 65.9 µM |

| SMILES | GI50 |
| --- | --- |
| Nc1ccc2[nH]c(C(=O)N3CC(CCl)c4c3cc(N)c3ccccc43)cc2c1 (centres undefined) | active: 0.0153 µM |
| C/C(=N/O)C1CC=C(S(=O)(=O)c2ccccc2)C1 (centres undefined) | inactive: > 100 µM |
| C/C(=N\N=C(/S)N(C)C)c1cccnn1 | active: 0.773 µM |
| COc1ccccc1N1C(=O)C2c3[nH]c4ccccc4c3C3CCC(C(C)(C)C)CC3C2C1=O (centres undefined) | inactive: > 100 µM |
| Cc1coc2c1C(=O)C(=O)c1c-2ccc2c1CCCC2(C)C [TANSHINONE IIA] | inactive: 3.18 µM |
| Clc1ccc(SCCSCCCCCCCCCCSCCSc2ccc(Cl)cc2)cc1 | inactive: > 100 µM |
| COc1ccc(/C=C/C(=O)c2sc(-c3cccnc3)nc2C)cc1 | inactive: 78.3 µM |
| CNCCNc1ccc2c3c(nn2CCNCCO)-c2c(O)ccc(O)c2C(=O)c13 | active: 0.343 µM |
| CCN(CC)c1ccc(/N=N/c2ccc([N+](=O)[O-])cc2OC(=O)/C=C/c2ccccc2)c(OC(=O)/C=C/c2ccccc2)c1 | inactive: 1.95 µM |
| CN1CCCCC1CCN1c2ccccc2Sc2ccc([S+](C)[O-])cc21 (centres undefined) [MESORIDAZINE] | inactive: > 100 µM |
| COc1ccc(-c2cn3c(nc4ccccc43)c(C)n2)cc1 | inactive: 41.8 µM |
| COC(=O)[C@@H]1[C@H]2CC[C@]3(C)[C@@H](OC(C)=O)CC[C@H]3[C@@H]2CC[C@H]1C(C)=O | inactive: > 100 µM |
| CN(c1ccccc1)S(=O)(=O)c1ccc([N+](=O)[O-])cc1 | inactive: > 100 µM |
| CC(NC(C)(C)C)C(=O)c1cccc(Cl)c1 (centres undefined) [BUPROPION HYDROCHLORIDE] | inactive: > 100 µM |
| O=P1(O)C=CC2(CCCC2)O1 | inactive: > 100 µM |
| COc1ccc(-c2cc(O)c3cc4c(cc3n2)OCO4)c(OC)c1OC | inactive: > 100 µM |
| Cc1ccc(-c2c(C#N)c(-c3ccc(Cl)cc3)c(C#N)c(=O)n2NS(=O)(=O)c2ccc(C)cc2)cc1 | inactive: 29.4 µM |
| CCOc1ccc(OCC)c([P+](c2ccccc2)(c2ccccc2)c2ccccc2)c1 | inactive: 2.6 µM |
| CC12Oc3ccc4ccccc4c3CC1Cc1c(ccc3ccccc13)O2 (centres undefined) | inactive: 97.9 µM |
| COc1ccc([C@H]2c3cc4c(cc3OC(O)(CO)[C@H]2C(=O)O)OCO4)c(OC)c1.COc1ccc([C@H]2c3cc4c(cc3OC3(O)COC(=O)[C@@H]23)OCO4)c(OC)c1 (some centres undefined) | inactive: > 100 µM |
| CC1=C[P+](c2ccccc2)(c2ccccc2)c2ccccc2O1 | inactive: 22.9 µM |
| O=C1OC(C2(O)OC(=O)c3ccccc32)c2ccccc21 (centres undefined) | inactive: > 100 µM |
| C[C@]12CC[C@H](O)C=C1CC[C@@H]1[C@@H]2CC[C@]2(C)C(=N/O)/C(=C/c3ccncc3)C[C@@H]12 | inactive: 13.6 µM |

| SMILES | GI50 |
| --- | --- |
| C/C(Cc1ccccc1)=N\NC(N)=S | inactive: > 100 µM |
| COc1ccc(-c2c3c(n(C4OC(COC(C)=O)C(OC(C)=O)C(OC(C)=O)C4OC(C)=O)c(=S)c2C#N)CC(C)(C)CC3=O)cc1 (centres undefined) | inactive: > 100 µM |
| CCCCN(CCCC)C1=Nc2ccccc2-n2c(nnc2C(=O)OCC)C1 | inactive: > 100 µM |
| COc1ccc(NC(=O)C2=C(SC)C(=O)N=C2N)cc1 | inactive: > 100 µM |
| CCCNCc1nc2ccc(Br)cc2c(=O)n1CCC | inactive: 17.4 µM |
| CCCCOC(=O)NC(=O)c1cn(CCCOC(=O)CCCCCCCCC(=O)OCCCn2cc(C(=O)NC(=O)OCCCC)c(=O)n(C)c2=O)c(=O)n(C)c1=O | inactive: > 100 µM |
| Cn1c(O)c(C2=Nc3ccccc3C2=O)c2ccccc21 | inactive: > 100 µM |
| CCCCCCCCCCCCCCCCP(=O)([O-])OCC[N+](C)(C)C | inactive: 22.9 µM |
| C/C(=N\Nc1nc2ccccc2s1)c1cc(C)ncn1 | active: 0.608 µM |
| Cc1ccc(Nc2nc(=S)[nH]c3[nH]ncc23)cc1 | inactive: > 100 µM |
| Nc1nc2c(-c3ccc([N+](=O)[O-])cc3)nnn2c2ccccc12 | inactive: > 100 µM |
| CCOC(=O)/C(=C\c1cccc(C)c1)C(C)=O | inactive: 14.7 µM |
| CN1C2CCC1CC(CC(=O)NC(c1ccc(F)cc1)c1ccc(F)cc1)C2 (centres undefined) | inactive: > 100 µM |
| FC(F)(F)c1ccc2c(c1)nc(-c1ccc(Cl)cc1)n2CC1CCCN2CCCCC12 (centres undefined) | inactive: 12.6 µM |
| N#Cc1nc(CCC(C(=O)O)N2C(=O)c3ccccc3C2=O)oc1N (centres undefined) | inactive: > 100 µM |
| CN(C)C1C(O)=C(C(=O)NCN2CCCC2)C(=O)C2(O)C(O)=C3C(=O)c4c(O)cccc4C(C)(O)C3CC12 (centres undefined) | inactive: > 100 µM |
| Cc1nc(C(N)=S)sc1C(=O)CC(=O)C(=O)Nc1ccccc1[N+](=O)[O-] | inactive: > 100 µM |
| COc1cc(C=C2C(=O)OC(C)(C)OC2=O)cc(OC)c1OC | inactive: > 100 µM |
| O=S1(=O)OC(c2ccc(O)cc2)(c2ccc(O)cc2)c2ccccc21 [PHENOLSULFONPHTHALEIN] | inactive: > 100 µM |
| CCN(CC)CCCNc1ncc(C)c2[nH]c3ccncc3c12 | inactive: 6 µM |
| CC[N+]1(C)CCC(O)(c2ccccc2)C(C(=O)c2ccccc2)C1 (centres undefined) | inactive: 20.5 µM |
| Cc1cc(S(=O)(=O)Nc2nc(N)nc(N(C)C)n2)c(SC(C(=O)O)c2ccccc2)cc1Cl (centres undefined) | inactive: > 10 µM |
| CC(=O)Oc1ccc2c3c1[C@@H]1O[C@@H]1c1cccc(c1-3)[C@@H]1O[C@H]21 | inactive: 7.13 µM |

| SMILES | GI50 |
| --- | --- |
| CCC1(O)C(=O)OCc2c1cc1n(c2=O)Cc2cc3ccccc3nc2-1 (centres undefined) | active: 0.184 µM |
| CCOC(=O)CC[C@H](NC(=O)[C@H](N)Cc1ccc(N(CCCl)CCCl)cc1)C(=O)OCC | inactive: 24.5 µM |
| CCc1c(-c2ccccc2)[nH]c2ccccc2c1=O | inactive: > 100 µM |
| OCC1OC(n2cnc3cccnc32)CC1O (centres undefined) | inactive: > 100 µM |
| CCc1cccc(C(C)C)c1NC(=O)CC1Sc2ccccc2NC1=O (centres undefined) | inactive: > 100 µM |
| CCOC(=O)Cc1nc2sc(S(N)(=O)=O)nn2c1Br | inactive: 34 µM |
| CCN(CC)C(=S)SC [METHYLDIETHYL CARBAMODITHIOATE] | inactive: > 100 µM |
| O=C(c1ccccc1)c1c(C(=O)c2ccccc2)c(-c2ccccc2)c2c(-c3ccccc3)sc(-c3ccccc3)c2c1-c1ccccc1 | inactive: > 100 µM |
| CCOC(=O)C1(C/C=C\CBr)CCCCCCC1=O (centres undefined) | inactive: > 100 µM |
| CCOC(=O)c1cc(C2CCN(CC(C)CC)C2=S)c(C(=O)/C=C(/C)N)[nH]1 (centres undefined) | inactive: > 50 µM |
| O=C(NCCc1ccccc1)C1C(=O)C(=O)N(CCc2ccccc2)C1=O (centres undefined) | inactive: > 100 µM |
| CCN(CC)CCCNc1c2c(Cl)cc(Cl)cc2nc2nc(O)nc(C)c12 | inactive: 69 µM |
| COC(=O)/C=C1/CCC(C)(C(=O)NS(=O)(=O)c2ccc(C)cc2)C1(C)C (centres undefined) | inactive: > 100 µM |
| C[C@@H](CC(O)C(O)C(C)(C)O)C1CCC23CC12CCC1[C@@]2(C)CCC(O)C(C)(C)C2CC(OC2OC(CO)C(O)C(O)C2O)[C@]13C (some centres undefined) | inactive: > 10 µM |
| N=C(N)N/N=C/c1c(Cl)nc2sccn12 | inactive: 19.1 µM |
| CCCCCCCCCCCCOCCOCCOCCOCCOCCOCC(=O)NC(Cc1ccccc1)C(=O)Oc1ccc([N+](=O)[O-])cc1 (centres undefined) | inactive: 46.5 µM |
| Cc1c(NC(=S)NC(=O)c2ccc([N+](=O)[O-])cc2)c(=O)n(-c2ccccc2)n1C | inactive: > 100 µM |
| COc1cc2c(cc1OC)C(Cl)C(c1ccc(Cl)cc1)=C2Cl (centres undefined) | inactive: 18.4 µM |
| CCCCCCCCCCOC1C(C(O)CNCCCN(C)C)OC2OC3(CCCCC3)OC21 (centres undefined) | inactive: 5.15 µM |
| CCC(C)n1c(C)nc2c1C(=O)c1ccccc1C2=O (centres undefined) | inactive: 69.8 µM |
